From the supplement of paper PMC10369915
The other results are listed elsewhere or left out. No stated cut-off is given here; in the data, active = 3.2 or more and inactive = the rest. Only a few entries rise above the background.

target: SHP2 C-SH2 domain E139D; assay: enrichment score (SH2-bound / input frequency) (ratio); bacterial display of known human phosphotyrosine sites (pTyr-Var adds point mutants) read by sequencing; higher = stronger binding; tyrosines were phosphorylated by kinases first; details: peptide library: pTyr-Var
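Further: displayed peptides selected on beads carrying the immobilized SH2 domain, with library peptides lacking any tyrosine serving as negative controls.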

| Binder | enrichment score |
| --- | --- |
| ANKNVYEVEPT [MEGF10_Y1075_R1072K] | inactive: 0.879 |
| MPAVTYTLAMR [MEGF10_Y895_P897L] | inactive: 0.818 |
| FGVTLYPNSRE [MEP1A_Y472] | inactive: 1.34 |
| FGLTLYPNSRE [MEP1A_Y472_V469L] | inactive: 1.54 |
| RESSGYLRLAF [MEP1A_Y481] | inactive: 1.36 |
| HFGCVYHGTLL [MET_Y1093] | inactive: 1.19 |
| HFGCVYLGTLL [MET_Y1093_H1094L] | inactive: 1.11 |
| HFGCVYFGTLL [MET_Y1093_H1094Y_YF] | inactive: 1.13 |
| HFGCIYHGTLL [MET_Y1093_V1092I] | inactive: 1.55 |
| AKGMKYLASKK [MET_Y1194] | inactive: 0.462 |
| AKGMKYVASKK [MET_Y1194_L1195V] | inactive: 0.61 |
| LARDMYDKEYY [MET_Y1230] | inactive: 0.895 |
| LARNMYDKEYY [MET_Y1230_D1228N] | inactive: 0.665 |
| LARNMYDKEFF [MET_Y1230_D1228N_YF] | inactive: 0.326 |
| LARDMCDKEFF [MET_Y1230_Y1230C_YF] | inactive: 1.09 |
| LARDMHDKEYY [MET_Y1230_Y1230H] | inactive: 0.372 |
| LARDMHDKEFF [MET_Y1230_Y1230H_YF] | inactive: 0.49 |
| LARDMYDKEFF [MET_Y1230_YF] | inactive: 0.719 |

target: SHP2 C-SH2 domain wild-type; assay: as above; details: peptide library: pTyr-Var

| Binder | enrichment score |
| --- | --- |
| ANKNVYEVEPT [MEGF10_Y1075_R1072K] | inactive: 0.889 |
| MPAVTYTLAMR [MEGF10_Y895_P897L] | inactive: 1.67 |
| FGVTLYPNSRE [MEP1A_Y472] | inactive: 1.17 |
| FGLTLYPNSRE [MEP1A_Y472_V469L] | inactive: 1.32 |
| RESSGYLRLAF [MEP1A_Y481] | inactive: 3.1 |
| HFGCVYHGTLL [MET_Y1093] | inactive: 1.65 |
| HFGCVYLGTLL [MET_Y1093_H1094L] | inactive: 1.07 |
| HFGCVYFGTLL [MET_Y1093_H1094Y_YF] | inactive: 1.33 |
| HFGCIYHGTLL [MET_Y1093_V1092I] | inactive: 1.89 |
| AKGMKYLASKK [MET_Y1194] | inactive: 0.534 |
| AKGMKYVASKK [MET_Y1194_L1195V] | inactive: 0.89 |
| LARDMYDKEYY [MET_Y1230] | inactive: 0.81 |
| LARNMYDKEYY [MET_Y1230_D1228N] | inactive: 0.54 |
| LARNMYDKEFF [MET_Y1230_D1228N_YF] | inactive: 0.277 |
| LARDMCDKEFF [MET_Y1230_Y1230C_YF] | inactive: 0.969 |
| LARDMHDKEYY [MET_Y1230_Y1230H] | inactive: 0.255 |
| LARDMHDKEFF [MET_Y1230_Y1230H_YF] | inactive: 0.424 |
| LARDMYDKEFF [MET_Y1230_YF] | inactive: 0.669 |

target: SHP2 N-SH2 domain L43F; assay: as above; details: peptide library: pTyr-Var

| Binder | enrichment score |
| --- | --- |
| ANKNVYEVEPT [MEGF10_Y1075_R1072K] | inactive: 0.62 |
| MPAVTYTLAMR [MEGF10_Y895_P897L] | inactive: 1.57 |
| FGVTLYPNSRE [MEP1A_Y472] | inactive: 1.29 |
| FGLTLYPNSRE [MEP1A_Y472_V469L] | inactive: 1.31 |
| RESSGYLRLAF [MEP1A_Y481] | active: 6.02 |
| HFGCVYHGTLL [MET_Y1093] | inactive: 0.997 |
| HFGCVYLGTLL [MET_Y1093_H1094L] | inactive: 1.67 |
| HFGCVYFGTLL [MET_Y1093_H1094Y_YF] | inactive: 1.37 |
| HFGCIYHGTLL [MET_Y1093_V1092I] | inactive: 1.28 |
| AKGMKYLASKK [MET_Y1194] | inactive: 0.506 |
| AKGMKYVASKK [MET_Y1194_L1195V] | inactive: 0.738 |
| LARDMYDKEYY [MET_Y1230] | inactive: 0.974 |
| LARNMYDKEYY [MET_Y1230_D1228N] | inactive: 0.499 |
| LARNMYDKEFF [MET_Y1230_D1228N_YF] | inactive: 0.376 |
| LARDMCDKEFF [MET_Y1230_Y1230C_YF] | inactive: 0.805 |
| LARDMHDKEYY [MET_Y1230_Y1230H] | inactive: 0.298 |
| LARDMHDKEFF [MET_Y1230_Y1230H_YF] | inactive: 0.981 |
| LARDMYDKEFF [MET_Y1230_YF] | inactive: 0.896 |

target: SHP2 N-SH2 domain T42A; assay: as above; details: peptide library: pTyr-Var

| Binder | enrichment score |
| --- | --- |
| ANKNVYEVEPT [MEGF10_Y1075_R1072K] | inactive: 0.676 |
| MPAVTYTLAMR [MEGF10_Y895_P897L] | inactive: 2.45 |
| FGVTLYPNSRE [MEP1A_Y472] | inactive: 1.35 |
| FGLTLYPNSRE [MEP1A_Y472_V469L] | inactive: 1.66 |
| RESSGYLRLAF [MEP1A_Y481] | active: 13.3 |
| HFGCVYHGTLL [MET_Y1093] | inactive: 1.02 |
| HFGCVYLGTLL [MET_Y1093_H1094L] | inactive: 0.966 |
| HFGCVYFGTLL [MET_Y1093_H1094Y_YF] | inactive: 0.916 |
| HFGCIYHGTLL [MET_Y1093_V1092I] | inactive: 1.24 |
| AKGMKYLASKK [MET_Y1194] | inactive: 0.526 |
| AKGMKYVASKK [MET_Y1194_L1195V] | inactive: 0.583 |
| LARDMYDKEYY [MET_Y1230] | inactive: 0.648 |
| LARNMYDKEYY [MET_Y1230_D1228N] | inactive: 0.53 |
| LARNMYDKEFF [MET_Y1230_D1228N_YF] | inactive: 0.254 |
| LARDMCDKEFF [MET_Y1230_Y1230C_YF] | inactive: 0.598 |
| LARDMHDKEYY [MET_Y1230_Y1230H] | inactive: 0.499 |
| LARDMHDKEFF [MET_Y1230_Y1230H_YF] | inactive: 0.381 |
| LARDMYDKEFF [MET_Y1230_YF] | inactive: 0.712 |

target: SHP2 N-SH2 domain T52S; assay: as above; details: peptide library: pTyr-Var

| Binder | enrichment score |
| --- | --- |
| ANKNVYEVEPT [MEGF10_Y1075_R1072K] | inactive: 0.696 |
| MPAVTYTLAMR [MEGF10_Y895_P897L] | inactive: 1.68 |
| FGVTLYPNSRE [MEP1A_Y472] | inactive: 1.37 |
| FGLTLYPNSRE [MEP1A_Y472_V469L] | inactive: 1.56 |
| RESSGYLRLAF [MEP1A_Y481] | active: 7.99 |
| HFGCVYHGTLL [MET_Y1093] | inactive: 1.26 |
| HFGCVYLGTLL [MET_Y1093_H1094L] | inactive: 1.14 |
| HFGCVYFGTLL [MET_Y1093_H1094Y_YF] | inactive: 1.2 |
| HFGCIYHGTLL [MET_Y1093_V1092I] | inactive: 1.32 |
| AKGMKYLASKK [MET_Y1194] | inactive: 0.705 |
| AKGMKYVASKK [MET_Y1194_L1195V] | inactive: 0.741 |
| LARDMYDKEYY [MET_Y1230] | inactive: 0.79 |
| LARNMYDKEYY [MET_Y1230_D1228N] | inactive: 0.478 |
| LARNMYDKEFF [MET_Y1230_D1228N_YF] | inactive: 0.333 |
| LARDMCDKEFF [MET_Y1230_Y1230C_YF] | inactive: 1.38 |
| LARDMHDKEYY [MET_Y1230_Y1230H] | inactive: 0.393 |
| LARDMHDKEFF [MET_Y1230_Y1230H_YF] | inactive: 0.73 |
| LARDMYDKEFF [MET_Y1230_YF] | inactive: 1.01 |

target: SHP2 N-SH2 domain wild-type; assay: as above; details: peptide library: pTyr-Var

| Binder | enrichment score |
| --- | --- |
| ANKNVYEVEPT [MEGF10_Y1075_R1072K] | inactive: 0.812 |
| MPAVTYTLAMR [MEGF10_Y895_P897L] | inactive: 1.09 |
| FGVTLYPNSRE [MEP1A_Y472] | inactive: 1.19 |
| FGLTLYPNSRE [MEP1A_Y472_V469L] | inactive: 1.59 |
| RESSGYLRLAF [MEP1A_Y481] | inactive: 2.8 |
| HFGCVYHGTLL [MET_Y1093] | inactive: 1.42 |
| HFGCVYLGTLL [MET_Y1093_H1094L] | inactive: 2.12 |
| HFGCVYFGTLL [MET_Y1093_H1094Y_YF] | inactive: 1.42 |
| HFGCIYHGTLL [MET_Y1093_V1092I] | inactive: 1.85 |
| AKGMKYLASKK [MET_Y1194] | inactive: 0.502 |
| AKGMKYVASKK [MET_Y1194_L1195V] | inactive: 0.893 |
| LARDMYDKEYY [MET_Y1230] | inactive: 0.775 |
| LARNMYDKEYY [MET_Y1230_D1228N] | inactive: 0.763 |
| LARNMYDKEFF [MET_Y1230_D1228N_YF] | inactive: 0.624 |
| LARDMCDKEFF [MET_Y1230_Y1230C_YF] | inactive: 0.912 |
| LARDMHDKEYY [MET_Y1230_Y1230H] | inactive: 0.331 |
| LARDMHDKEFF [MET_Y1230_Y1230H_YF] | inactive: 0.559 |
| LARDMYDKEFF [MET_Y1230_YF] | inactive: 0.543 |
